Experimental data from the antibiotic and cytotoxicity screens of Wong et al. (2023).
The other results are listed elsewhere or left out.

Test system: HSkMC (human skeletal muscle cells)
Experiment: cytotoxicity call (relative viability < 0.9)
Conditions: 10 µM

`O=c1[nH]nc(N2CCSCC2)[nH]1` was tested. Which cytotoxicity call did it give?
The cytotoxicity call was “inactive”.

Which cytotoxicity call does the source give for `C[C@H]1CN([C@@H](C)CO)C(=O)c2c(c3ccccc3n2C)-c2ccccc2CO[C@@H]1CN(C)S(=O)(=O)c1cn(C)cn1` here?
Its cytotoxicity call is “inactive”.

With `C[C@@H]1CCCCO[C@@H](CN(C)C(=O)NC2CCCCC2)[C@H](C)CN([C@@H](C)CO)C(=O)c2cc(NS(=O)(=O)c3ccc(Cl)cc3)ccc2O1` as the molecule, how does the cytotoxicity call read?
The cytotoxicity call was “inactive”.

With `CC(C)NC(=O)Nc1ccc2c(c1)CC(=O)N([C@@H](C)CO)C[C@H](C)[C@H](CN(C)C(=O)NC1CCCCC1)O2` as the molecule, how does the cytotoxicity call read?
The cytotoxicity call was “inactive”.

`Cc1noc(C)c1NC(=O)N(C)C[C@@H]1Oc2ccc(NS(=O)(=O)c3cccs3)cc2CC(=O)N([C@@H](C)CO)C[C@H]1C` was tested. Which cytotoxicity call did it give?
Its cytotoxicity call is “inactive”.

Which cytotoxicity call does the source give for `C[C@@H]1CCCCO[C@H](CN(C)S(=O)(=O)c2ccc(Cl)cc2)[C@H](C)CN([C@@H](C)CO)C(=O)c2cc(NC(=O)Nc3ccc(C(F)(F)F)cc3)ccc2O1` here?
Its cytotoxicity call is “inactive”.

`C[C@H](CO)N1C[C@H](C)[C@@H](CN(C)S(=O)(=O)c2cn(C)cn2)OCCCC[C@H](C)Oc2ccc(N(C)C)cc2C1=O` was tested. Which cytotoxicity call did it give?
Its cytotoxicity call is “inactive”.

For `C[C@@H]1CN([C@@H](C)CO)C(=O)c2cccc(NC(=O)Nc3ccccc3)c2O[C@@H]1CN(C)S(C)(=O)=O`, which cytotoxicity call is on record?
Its cytotoxicity call is “inactive”.

With `O=c1nc[nH]c2nn(-c3ccccc3)nc12` as the molecule, how does the cytotoxicity call read?
Its cytotoxicity call is “inactive”.

How did the cytotoxicity call turn out when `C[C@@H]1CN([C@H](C)CO)C(=O)c2cc(NS(C)(=O)=O)ccc2O[C@H]1CN(C)S(=O)(=O)c1ccccc1` was run?
Its cytotoxicity call is “inactive”.

Which cytotoxicity call does the source give for `COc1ccc(S(=O)(=O)Nc2ccc3c(c2)C(=O)N([C@@H](C)CO)C[C@H](C)[C@H](CN(C)S(C)(=O)=O)O3)cc1` here?
The cytotoxicity call was “inactive”.

With `C[C@@H]1CCCCO[C@H](CN(C)Cc2ccccc2)[C@@H](C)CN([C@H](C)CO)C(=O)c2cc(NC(=O)CCC(F)(F)F)ccc2O1` as the molecule, how does the cytotoxicity call read?
The cytotoxicity call was “inactive”.

How did the cytotoxicity call turn out when `COCC#Cc1cnc2c(c1)C(=O)N([C@H](C)CO)C[C@@H](C)[C@@H](CN(C)C(=O)Nc1ccccc1OC)O2` was run?
The cytotoxicity call was “inactive”.

Which cytotoxicity call does the source give for `NCCCC(O)(P(=O)(O)O)P(=O)(O)O` here?
Its cytotoxicity call is “inactive”.

With `Cc1noc(C)c1S(=O)(=O)N(C)C[C@@H]1OCCCC[C@H](C)Oc2ccc(NC(=O)Nc3ccccc3)cc2C(=O)N([C@H](C)CO)C[C@H]1C` as the molecule, how does the cytotoxicity call read?
Its cytotoxicity call is “active”.

`C[C@H](NC(=O)C[C@@H]1C[C@@H]2c3cc(NC(=O)Nc4ccc(C(F)(F)F)cc4)ccc3O[C@@H]2[C@@H](CO)O1)c1ccccc1` was tested. Which cytotoxicity call did it give?
Its cytotoxicity call is “inactive”.

Which cytotoxicity call does the source give for `COCC(=O)N(C)C[C@@H]1Oc2cc(C#CC(C)(C)O)ccc2S(=O)(=O)N([C@H](C)CO)C[C@@H]1C` here?
Its cytotoxicity call is “inactive”.

For `O=C(C[C@@H]1CC[C@@H]2NC[C@H](O)COC[C@H]2O1)NCCN1CCCC1`, which cytotoxicity call is on record?
The cytotoxicity call was “inactive”.

`C[C@H](CO)N1C[C@H](C)[C@H](CN(C)C(=O)Nc2ccc3c(c2)OCO3)OCc2cnnn2CCCC1=O` was tested. Which cytotoxicity call did it give?
Its cytotoxicity call is “inactive”.

For `Cc1cc(C(=O)Nc2cccc3c2O[C@@H](CN(C)C(=O)NC2CCCCC2)[C@H](C)CN([C@H](C)CO)C3=O)n(C)n1`, which cytotoxicity call is on record?
The cytotoxicity call was “inactive”.

For `C[C@@H]1CN([C@@H](C)CO)C(=O)c2cc(C#Cc3ccccc3F)cnc2O[C@@H]1CN(C)S(=O)(=O)c1ccccc1F`, which cytotoxicity call is on record?
The cytotoxicity call was “inactive”.

How did the cytotoxicity call turn out when `Cc1cc(C)c2ccc(Cl)nc2n1` was run?
Its cytotoxicity call is “inactive”.

For `C[C@@H]1CN([C@@H](C)CO)C(=O)c2cc(NC(=O)Nc3ccc(C(F)(F)F)cc3)ccc2O[C@H]1CN(C)C(=O)Nc1ccc2c(c1)OCO2`, which cytotoxicity call is on record?
The cytotoxicity call was “inactive”.

How did the cytotoxicity call turn out when `Nc1c(C(=O)O)cnc2nc(N3CCOCC3)nn12` was run?
Its cytotoxicity call is “inactive”.

For `O=S(=O)(NCC[C@H]1CC[C@H](NS(=O)(=O)c2ccccc2Cl)[C@H](CO)O1)c1ccc(Cl)cc1`, which cytotoxicity call is on record?
Its cytotoxicity call is “inactive”.

`CN1CCN(C(=O)C[C@H]2CC[C@H]3[C@@H](COC[C@H](O)CN3S(=O)(=O)c3cccc(Cl)c3)O2)CC1` was tested. Which cytotoxicity call did it give?
The cytotoxicity call was “inactive”.

Which cytotoxicity call does the source give for `C[C@H](CO)N1C[C@H](C)[C@H](CN(C)Cc2ccc(C(=O)O)cc2)OCCCC[C@H](C)Oc2ccc(NC(=O)C3CCCCC3)cc2C1=O` here?
Its cytotoxicity call is “inactive”.

Which cytotoxicity call does the source give for `O=C(CN1CCOCC1)N[C@@H]1CC[C@@H](CCn2cc(C3CC3)nn2)O[C@H]1CO` here?
The cytotoxicity call was “inactive”.

`C[C@@H]1CN([C@H](C)CO)C(=O)c2cc(-c3cccc(C(=O)N(C)C)c3)cnc2O[C@@H]1CN(C)S(=O)(=O)c1ccccc1` was tested. Which cytotoxicity call did it give?
Its cytotoxicity call is “inactive”.

For `C[C@@H]1CN([C@H](C)CO)C(=O)c2cc(NC(=O)Nc3cccc4ccccc34)ccc2O[C@@H]1CN(C)Cc1ccc(C(F)(F)F)cc1`, which cytotoxicity call is on record?
The cytotoxicity call was “inactive”.

Which cytotoxicity call does the source give for `CC1(C)SC2C(NC(=O)COc3ccccc3)C(=O)N2C1C(=O)[O-].[K+]` (stereo not given) here?
The cytotoxicity call was “inactive”.

How did the cytotoxicity call turn out when `Cc1cc(C(=O)Nc2cccc3c2O[C@@H](CN(C)C(=O)Nc2ccc4c(c2)OCO4)[C@H](C)CN([C@H](C)CO)C3=O)n(C)n1` was run?
The cytotoxicity call was “inactive”.

`C[C@@H]1CN([C@@H](C)CO)C(=O)c2cc(NC(=O)Cc3ccccc3)ccc2O[C@@H](C)CCCCO[C@@H]1CN(C)C(=O)Nc1cccc2ccccc12` was tested. Which cytotoxicity call did it give?
Its cytotoxicity call is “inactive”.

Which cytotoxicity call does the source give for `C=CCC[C@H](Cc1ccc(F)cc1)C(=O)OC[C@@H](NC(=O)[C@H](CC=C)CC(=O)N(CCO)Cc1ccccc1)c1ccccc1` here?
The cytotoxicity call was “inactive”.

Which cytotoxicity call does the source give for `C[C@@H]1CN([C@H](C)CO)C(=O)c2cc(NC(=O)Cc3cn(C)c4ccccc34)ccc2O[C@H]1CN(C)S(=O)(=O)c1cn(C)cn1` here?
Its cytotoxicity call is “inactive”.

With `C[C@H]1CN([C@@H](C)CO)C(=O)c2cc(NC(=O)CCC(F)(F)F)ccc2O[C@H]1CN(C)C(=O)Nc1cccc2ccccc12` as the molecule, how does the cytotoxicity call read?
Its cytotoxicity call is “inactive”.

How did the cytotoxicity call turn out when `C[C@H](CO)N1C[C@H](C)[C@@H](CN(C)Cc2ccc(Oc3ccccc3)cc2)Oc2c(NC(=O)c3nc4ccccc4s3)cccc2C1=O` was run?
The cytotoxicity call was “inactive”.

`COc1ccc2c3c(n(c2c1)C)[C@@H](CO)N(CC1CCOCC1)C[C@]13CCN(CC1)C(=O)Cc1cccnc1` was tested. Which cytotoxicity call did it give?
Its cytotoxicity call is “inactive”.

`C[C@@H]1CCCCO[C@@H](CN(C)S(=O)(=O)c2ccc(F)cc2)[C@H](C)CN([C@@H](C)CO)C(=O)c2cc(NC(=O)Nc3ccc4c(c3)OCO4)ccc2O1` was tested. Which cytotoxicity call did it give?
Its cytotoxicity call is “inactive”.

With `C[C@H](CO)N1C[C@H](C)[C@H](CN(C)C(=O)Nc2ccc3c(c2)OCO3)Oc2ccc(NC(=O)Cn3cnnn3)cc2C1=O` as the molecule, how does the cytotoxicity call read?
Its cytotoxicity call is “inactive”.
